# Some of the results follow. Repeats are few or missing, and single values can be far off.
# What was measured:
# Assay in all cases: cell count relative to DMSO control; melanoma cells; higher = more viable cells
# Details in all cases: library dose: standard library concentration; 72 h
# [1] = tested on: 501Mel
# [2] = tested on: A101D
# [3] = tested on: A2058
# [4] = tested on: A375
# 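Also: cells treated in 1,536-well plates, then fixed and DAPI-stained, with nuclei counted from automated high-throughput microscope images.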
Structure (SMILES),cell count [1] [%],cell count [2] [%],cell count [3] [%],cell count [4] [%]
"CC1(C)CCC(c2ccc(Cl)cc2)=C(CN2CCN(c3ccc(C(=O)NS(=O)(=O)c4ccc(N[C@H](CCN5CCOCC5)CSc5ccccc5)c(S(=O)(=O)C(F)(F)F)c4)cc3)CC2)C1 + COc1ccc(-c2ccc3c(N4CCOCC4)nc(N4C[C@@H](C)O[C@@H](C)C4)nc3n2)cc1CO [KU0063794] (first compound 2 µM, partner dose 0.1 µM)",95,44.8,91.6,92.5
"CC1(C)CCC(c2ccc(Cl)cc2)=C(CN2CCN(c3ccc(C(=O)NS(=O)(=O)c4ccc(N[C@H](CCN5CCOCC5)CSc5ccccc5)c(S(=O)(=O)C(F)(F)F)c4)cc3)CC2)C1 + CS(=O)(=O)c1ccc(C(=O)Nc2ccc(Cl)c(-c3ccccn3)c2)c(Cl)c1 [vismodegib] (first compound 2 µM, partner dose 5 µM)",–,46.3,67.6,68.2
"O=C(/C=C/c1cccnc1)NCCCCC1CCN(C(=O)c2ccccc2)CC1 + COC(=O)c1sccc1S(=O)(=O)Nc1ccc(Nc2ccccc2)cc1OC [GSK0660] (first compound 0.05 µM, partner dose 5 µM)",80.8,82.5,109,102
"CC1(C)CCC(c2ccc(Cl)cc2)=C(CN2CCN(c3ccc(C(=O)NS(=O)(=O)c4ccc(N[C@H](CCN5CCOCC5)CSc5ccccc5)c(S(=O)(=O)C(F)(F)F)c4)cc3)CC2)C1 + C[C@@H](N)c1ccc(C(=O)Nc2ccnc3[nH]ccc23)cc1 [RKI983] (first compound 2 µM, partner dose 2 µM)",–,32.6,62.6,49.2
"Cc1ccc(Nc2nccc(N(C)c3ccc4c(C)n(C)nc4c3)n2)cc1S(N)(=O)=O [Pazopanib] + CN1CCN(c2ccc3nc(-c4c(N)c5c(F)cccc5[nH]c4=O)[nH]c3c2)CC1 [Dovitinib] (first compound 2 µM, partner dose 0.5 µM)",–,70.2,21.7,69.3
"CC1(C)CCC(c2ccc(Cl)cc2)=C(CN2CCN(c3ccc(C(=O)NS(=O)(=O)c4ccc(N[C@H](CCN5CCOCC5)CSc5ccccc5)c(S(=O)(=O)C(F)(F)F)c4)cc3)CC2)C1 + CCN(CC)CCCCNc1ncc2cc(-c3cc(OC)cc(OC)c3)c(NC(=O)NC(C)(C)C)nc2n1 [PD173074] (first compound 2 µM, partner dose 0.5 µM)",69.9,51.9,83.6,68.5
"O=C(/C=C/c1cccnc1)NCCCCC1CCN(C(=O)c2ccccc2)CC1 + Cn1cc(/C=C2\C(=O)Nc3cccnc32)c2ccccc21 [GW441756] (first compound 0.05 µM, partner dose 2 µM)",66,93.9,113,152
"CC1(C)CCC(c2ccc(Cl)cc2)=C(CN2CCN(c3ccc(C(=O)NS(=O)(=O)c4ccc(N[C@H](CCN5CCOCC5)CSc5ccccc5)c(S(=O)(=O)C(F)(F)F)c4)cc3)CC2)C1 + CCCS(=O)(=O)Nc1ccc(F)c(C(=O)c2c[nH]c3ncc(Cl)cc23)c1F [PLX4720] (first compound 2 µM, partner dose 0.4 µM)",–,48.6,87.3,63.6
"CC1(C)CCC(c2ccc(Cl)cc2)=C(CN2CCN(c3ccc(C(=O)NS(=O)(=O)c4ccc(N[C@H](CCN5CCOCC5)CSc5ccccc5)c(S(=O)(=O)C(F)(F)F)c4)cc3)CC2)C1 + CS(=O)(=O)CCNCc1ccc(-c2ccc3ncnc(Nc4ccc(OCc5cccc(F)c5)c(Cl)c4)c3c2)o1 [lapatinib] (first compound 2 µM, partner dose 4 µM)",–,28.2,72.8,47.5
"Cc1ccc(Nc2nccc(N(C)c3ccc4c(C)n(C)nc4c3)n2)cc1S(N)(=O)=O [Pazopanib] + COc1ccc2c(c1)CCC1C2CCC2(C)C(NCCCCCCN3C(=O)C=CC3=O)CCC12 [U73122] (first compound 2 µM, partner dose 2 µM)",105,75.9,91.9,87.6
"Cc1ccc(Nc2nccc(N(C)c3ccc4c(C)n(C)nc4c3)n2)cc1S(N)(=O)=O [Pazopanib] + O=C(O)[C@@H]1[O][Sb](=[O])([O][Sb]2(=[O])[O][C@H]([C@H](O)CO)[C@H](O)[C@H](C(=O)O)[O]2)[O][C@H]([C@H](O)CO)[C@@H]1O [stibogluconate] (first compound 2 µM, partner dose 10 µM)",–,84.8,119,85.1
